Reference: patent publication US20200109190A1 (AstraZeneca / MedImmune, published 2020)

Experiments:
LukSF [1] = target: T1, LukSF (Staphylococcus aureus); experiment: cell-based or functional assay
HlgAB [2] = target: T2, HlgAB (Staphylococcus aureus, UniProt P0A074 30-309); experiment: cell-based or functional assay
T2 sequence 1: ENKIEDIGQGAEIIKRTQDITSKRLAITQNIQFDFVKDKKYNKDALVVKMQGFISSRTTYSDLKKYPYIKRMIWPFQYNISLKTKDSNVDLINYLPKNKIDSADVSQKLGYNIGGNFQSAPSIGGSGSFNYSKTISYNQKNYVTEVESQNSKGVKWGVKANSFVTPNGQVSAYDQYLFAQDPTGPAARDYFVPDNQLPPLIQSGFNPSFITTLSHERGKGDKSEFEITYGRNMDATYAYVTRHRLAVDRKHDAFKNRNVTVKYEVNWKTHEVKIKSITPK
T2 sequence 2: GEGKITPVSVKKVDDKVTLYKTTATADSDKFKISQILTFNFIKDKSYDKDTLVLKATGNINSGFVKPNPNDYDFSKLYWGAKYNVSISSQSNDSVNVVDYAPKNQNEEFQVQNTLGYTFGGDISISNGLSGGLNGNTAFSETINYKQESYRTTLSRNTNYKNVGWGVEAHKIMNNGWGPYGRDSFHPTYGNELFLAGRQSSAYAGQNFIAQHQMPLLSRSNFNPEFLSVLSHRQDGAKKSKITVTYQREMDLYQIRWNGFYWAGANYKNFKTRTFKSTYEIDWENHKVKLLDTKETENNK

LukSF [3] = target: T1, LukSF; experiment: cell-based or functional assay; remark: listed apart in the source
HlgAB [4] = target: T2, HlgAB; experiment: cell-based or functional assay; remark: listed apart in the source
LukSF [5] = target: T1, LukSF; experiment: cell-based or functional assay; remark: listed apart in the source
HlgAB [6] = target: T2, HlgAB; experiment: cell-based or functional assay; remark: listed apart in the source
LukSF [7] = target: T1, LukSF; experiment: cell-based or functional assay; remark: listed apart in the source
LukED = LukED (Staphylococcus aureus, UniProt O54081 29-314); experiment: cell-based or functional assay
LukED, sequence (O54081 29-314 limits assumed): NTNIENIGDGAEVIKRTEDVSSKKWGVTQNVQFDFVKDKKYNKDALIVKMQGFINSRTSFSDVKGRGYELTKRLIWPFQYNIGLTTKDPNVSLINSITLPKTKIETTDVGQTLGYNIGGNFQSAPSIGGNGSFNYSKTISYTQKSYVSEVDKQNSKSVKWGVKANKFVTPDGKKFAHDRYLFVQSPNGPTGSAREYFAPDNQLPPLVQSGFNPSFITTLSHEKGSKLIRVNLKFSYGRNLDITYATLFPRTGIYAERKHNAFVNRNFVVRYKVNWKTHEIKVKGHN

S. aureus LukF [8] = target: T3, S. aureus LukF (Staphylococcus aureus); experiment: method not stated at Table 8; BLI (Octet) is described in Example 4
S. aureus LukF [9] = target: T3, S. aureus LukF; experiment: BLI (Octet384), antibody captured on anti-human IgG Fc biosensors, antigen in solution
S. aureus LukD = target: T4, S. aureus LukD (Staphylococcus aureus, UniProt Q2FXB1 27-327); experiment: as above
T4 sequence: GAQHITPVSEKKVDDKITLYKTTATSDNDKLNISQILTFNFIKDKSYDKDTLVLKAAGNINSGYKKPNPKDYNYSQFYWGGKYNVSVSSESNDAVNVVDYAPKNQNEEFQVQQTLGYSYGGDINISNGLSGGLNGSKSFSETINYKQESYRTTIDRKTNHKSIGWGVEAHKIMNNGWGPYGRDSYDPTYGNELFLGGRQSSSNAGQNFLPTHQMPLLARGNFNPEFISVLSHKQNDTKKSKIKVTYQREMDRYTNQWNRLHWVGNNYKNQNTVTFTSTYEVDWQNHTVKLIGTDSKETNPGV

S. aureus HlgB = target: T5, S. aureus HlgB (Staphylococcus aureus, UniProt P0A075 27-325); experiment: as above
T5 construct: also called HIgB
T5 sequence: T2 sequence 2

B1: SAN481 (antibody)
heavy: QLQLVESGGGAVQPGRSLKLSCAASGFNFSTYAMHWVRQAPGRGLEWVAVTSFDGSNEYYIDSVKGRFTISRDNTKNTLYLQMTGLRVEDTALYFCARDEYTGGWYSVGYWGQGTLVTVSSASTKGPSVFPLAPSSKSTSGGTAALGCLVKDYFPEPVTVSWNSGALTSGVHTFPAVLQSSGLYSLSSVVTVPSSSLGTQTYICNVNHKPSNTKVDKRV[left out - human IgG1 Fc]
light: QSVLTQPPSASGTPGQRVTISCSGNSYNIGSNSVYWYQQFPGTAPKLLISRSIQRPSGVPDRFSGSKSVTSASLAISGLRSEDEADYYCAAWDDSLRAWVFGGGTKLTVLGQPKAAPSVTLFPPSSEELQANKATLVCLISDFYPGAVTVAWKADSSPVKAGVETTTPSKQSNNKYAASSYLSLTPEQWKSHRSYSCQVTHEGSTVEKTVAPTECS
notes: also called WT
IC50 (LukSF) HL-60 (LukSF [1]): 0.16 µg/mL | IC50 (HIgAB) HL-60 (HlgAB [2]): 0.57 µg/mL | IC50 for LukSF (LukSF [3]): 0.16 µg/mL | IC50 for HIgAB (HlgAB [4]): 0.569 µg/mL | IC50 (LukSF) HL-60; Dark sample (LukSF [5]): 0.16 µg/mL | IC50 (HIgAB) HL-60; Dark sample (HlgAB [6]): 0.569 µg/mL | IC50 (read off the curve) (LukSF [7]): ~0.4 µg/mL | IC50 (read off the curve) (LukED): ~3 µg/mL | Kd (S. aureus LukF [8]): 163 pM | Kd (S. aureus LukF [9]): 99.3 pM | koff (S. aureus LukF [9]): 3.99e-05 s⁻¹ | kon (S. aureus LukF [9]): 402000 M⁻¹ s⁻¹ | Kd (S. aureus LukD): < 1 pM | koff (S. aureus LukD): < 1e-07 s⁻¹ | kon (S. aureus LukD): 348000 M⁻¹ s⁻¹ | Kd (S. aureus HlgB): 151 pM | koff (S. aureus HlgB): 4.38e-05 s⁻¹ | kon (S. aureus HlgB): 290000 M⁻¹ s⁻¹
